According to PubChem BioAssay AID624172 (National Center for Advancing Translational Sciences (NCATS), 2012):
Hit rate of the full screen: of about 380,000 compounds, about 25 (0.007%) were called active. Inconclusive means that the source gave no clear call. Such entries were picked first, then a sample of the others. Calls come from the whole dose curve; as a rule, active = well fitted activation curve with a large enough effect; inconclusive = small, poorly fitted or top-dose-only effect; inactive = no such curve, though single readings can be large or run the other way. No potency is given beside an inconclusive call; the fits are too rough.

Molecular target: Glucagon-like peptide 1 receptor (Homo sapiens) (UniProt P43220)
Assay: qHTS of GLP-1 Receptor Agonists; for activation: % of control where 0% means no effect
Conditions: HEK293 GLP-1R CRE-luciferase, luminescence, 4-6 h, cells express a hypersensitive GLP-1R form; activation: at 45.6 µM (top of the series) unless noted
Potency is the fitted concentration of half-maximal effect; tags give direction and shape of the fitted curve.

Chain of UniProt P43220 (P43220 whole entry, looked up): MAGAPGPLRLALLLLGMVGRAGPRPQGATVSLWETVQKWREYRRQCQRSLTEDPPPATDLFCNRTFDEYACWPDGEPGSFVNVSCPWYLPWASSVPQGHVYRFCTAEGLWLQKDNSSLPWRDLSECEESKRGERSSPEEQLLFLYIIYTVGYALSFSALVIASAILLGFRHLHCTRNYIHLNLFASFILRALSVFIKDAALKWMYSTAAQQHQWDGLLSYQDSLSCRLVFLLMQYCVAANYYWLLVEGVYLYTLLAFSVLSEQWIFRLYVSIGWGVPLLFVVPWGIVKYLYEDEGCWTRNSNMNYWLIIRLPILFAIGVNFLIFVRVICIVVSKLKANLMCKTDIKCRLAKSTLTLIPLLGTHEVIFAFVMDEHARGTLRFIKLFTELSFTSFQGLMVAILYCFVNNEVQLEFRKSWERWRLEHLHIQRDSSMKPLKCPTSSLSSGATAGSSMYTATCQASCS

| SMILES | Potency | activation |
| --- | --- | --- |
| CN(C)C(CNC(=O)c1ccc(C2SCCS2)cc1)c1ccccc1 (stereo unspecified) | inconclusive [activator, partial curve, poor fit] |  |
| Cc1cccc(Nc2nc(N)nc(CSc3nccc(C)n3)n2)c1 | inconclusive [activator, single point] |  |
| CCNc1nnc(CSc2nc3ccccc3s2)s1 | inconclusive [activator, single point] |  |
| CC1(C(=O)Nc2cccc(NS(C)(=O)=O)c2)CCN1Cc1ccccc1OC(F)F (stereo unspecified) | inconclusive [activator, partial curve, poor fit] |  |
| CCOc1ccc2[nH]c(C)c(CN3CCN(CC)CC3)c(=O)c2c1 |  | inactive: -14.5% |
| CCOC(=O)c1ccc(Cl)c(NC(=O)c2ccc(-c3ccccc3)cc2)c1 |  | inactive: -2.55% |
| COc1ccc([N+](=O)[O-])cc1NC(=O)C(C)OC(=O)c1cccnc1Cl (stereo unspecified) | inconclusive [activator, partial curve, poor fit] |  |
| CC(=O)c1ccc(OCc2cc(C(=O)N3CC[C@@H]4CCCC[C@H]4C3)no2)cc1 |  | inactive: 15.4% |
| COc1ccc2c(c1OC)C(=O)N1c3ccccc3SC21 (stereo unspecified) |  | inactive: 21.6% |
| COC(=O)c1ccc(OCC2c3cc(OC)c(OC)cc3CCN2C(C)=O)cc1 (stereo unspecified) | inconclusive [activator, partial curve, poor fit] |  |
| COCc1cc(CN2CCN(C)CC2)c(O)c2ncccc12 |  | inactive: -14% |
| COc1ccc(/C=N/OCC(=O)NC(c2ccccc2)c2ccccc2)cc1OC | inconclusive [activator, partial curve, poor fit] |  |
| Cc1c(C(=O)NCc2cccs2)oc2ccccc12 | inconclusive [activator, partial curve, poor fit] |  |
| CN(C)Cc1nc2ccccc2c(=O)n1Cc1nc(-c2cccc([N+](=O)[O-])c2)cs1 | inconclusive [activator, partial curve, poor fit] |  |
| COC(=O)c1sccc1S(=O)(=O)Nc1ccc(N2CCCCC2)cc1 | inconclusive [activator, partial curve, poor fit] |  |
| CCOC(=O)c1c(-c2cccc([N+](=O)[O-])c2)cn2ccccc12 | inconclusive [activator, partial curve] |  |
| CC(Sc1ccc(Cl)cc1)C(=O)Nc1ccc2c(c1)OCO2 (stereo unspecified) |  | inactive: 3.15% |
| CCNC(=O)OCCC12CC3CC(CC(C3)C1)C2 | inconclusive [activator, single point] |  |
| COc1ccc(-c2nc3cnccn3c2Nc2ccc(C)cc2)cc1 |  | inactive: 21.7% |
| Cc1ccn2c(/C=N/OCc3cccc(F)c3)c(-c3ccc(Cl)cc3)nc2c1 |  | inactive: 0.809% |
| COC(=O)c1ccc(NC(=O)CC2C(=O)N(c3cccc(F)c3)C(=O)N2CC(C)C)cc1 (stereo unspecified) |  | inactive: -0.0016% |
| COc1cc(C(=O)Nc2ccc3c(c2)CCN3C(C)=O)cc(OC)c1OC | inconclusive [activator, single point] |  |
| CCOC(=O)c1nc(NCCc2ccccc2)sc1C | inconclusive [activator, partial curve, poor fit] |  |
| CCOc1ncccc1C(=O)OC(C)C(=O)Nc1ccc(N2CCOCC2)cc1 (stereo unspecified) | inconclusive [activator, single point] |  |

| SMILES | Potency | activation |
| --- | --- | --- |
| O=S(=O)(c1ccc(Br)cc1)c1nc(-c2ccco2)oc1NCCCn1ccnc1 | inconclusive [activator, full curve, poor fit] |  |
| CSc1ccc(/C=N/n2c(C3CCCCC3)n[nH]c2=S)cc1 |  | inactive: 20.1% |
| OCCN=C1CCCc2c1[nH]c1ccc(Br)cc21 | inconclusive [activator, single point] |  |
| CCn1c(SCc2ccccc2)nc2ccccc2c1=O | inconclusive [activator, partial curve, poor fit] |  |
| COc1ccc(C(C)=O)cc1COC(=O)c1cccnc1Cl | inconclusive [activator, partial curve, poor fit] |  |
| CCc1ccc(NC(=O)C(=O)NCCN2CCN(Cc3ccc([N+](=O)[O-])cc3)CC2)cc1 |  | inactive: -5.34% |
| COc1ccc(CN2CCCC(C(=O)c3ccc(SC)cc3)C2)cc1Cn1cccn1 (stereo unspecified) | inconclusive [activator, partial curve, poor fit] |  |
| COc1cc(Cl)c(C)cc1NC(=O)CN(C)Cc1cccc(OC)c1OC | inconclusive [activator, partial curve] |  |
| Cc1ccc(NC(=O)Cc2nc(COC(=O)c3c(F)cccc3Cl)cs2)cc1 |  | inconclusive: 55.3% [activator] |
| CC(NC(=O)CN1C(=O)NC2(CCCCCCC2)C1=O)c1ccccc1 (stereo unspecified) | inconclusive [activator, full curve, poor fit] |  |
| CCn1c(SCc2nc(-c3ccccc3)no2)nc2ccccc21 | inconclusive [activator, single point] |  |
| CCOc1ccccc1-n1c(SCC(=O)Nc2ccc(CC)cc2)nc2n[nH]c(C)c2c1=N |  | inactive: 1.56% |
| Nc1nc2nc(-c3ccc(F)cc3)cc(C(F)(F)F)n2n1 |  | inactive: 1.25% |
| O=C(NCc1ccc(F)cc1)c1cc(C2CCCN(C(=O)c3cccs3)C2)on1 (stereo unspecified) |  | inconclusive: 32.7% [activator] |
| CCCCCCCCCCCCCCCC(=O)NCCO |  | inconclusive: 64.1% [activator] |
| CC(C)(CNC(=O)c1ccc(-c2cccc(C(F)(F)F)c2)o1)N1CCOCC1 | inconclusive [activator, partial curve, poor fit] |  |
| CCOCN(C(=O)Cn1c(CO)nc2ccccc21)c1c(C)cccc1CC |  | inactive: 0.548% |
| OC(CNCc1ccc(Cl)c(Cl)c1)c1ccccc1 (stereo unspecified) | inconclusive [activator, partial curve, poor fit] |  |
| Cc1cc(C)nc(SCC(=O)Nc2ccc3c(c2)OCO3)n1 |  | inactive: -0.0049% |
| CCOC(=O)c1[nH]c(COC(=O)CCCOc2ccccc2)c(C(=O)OCC)c1C |  | inactive: 1.73% |
| CCOc1ccccc1NC(=O)CCSc1nc2n[nH]c(C)c2c(=N)n1-c1ccccc1Cl | inconclusive [activator, partial curve, poor fit] |  |
| COc1ccccc1Cc1c(-c2ccc(OC)c(OC)c2)nc2ccc(C)cn12 | inconclusive [activator, partial curve] |  |
| O=C(Nc1ccccc1N1CCCCC1)c1cnccn1 | inconclusive [activator, partial curve, poor fit] |  |
| CCOc1ccc(C2=Nn3c(nnc3-c3ccccc3OC)SC2)cc1 | inconclusive [activator, full curve] |  |

| SMILES | Potency | activation |
| --- | --- | --- |
| COc1ccccc1N1CCN(Cc2ccc(O)c3ncccc23)CC1 |  | inactive: 7.22% |
| C=C(Cl)COc1ccc2c(CCC)cc(=O)oc2c1 | inconclusive [activator, partial curve, poor fit] |  |
| O=C(c1cccc(Cl)c1)N1CCC(=O)N(C(COCc2cccc(Cl)c2)Cc2ccccc2)CC1 (stereo unspecified) |  | inactive: 9.92% |
| Cc1ccccc1OC(C)C(=O)NCc1cccnc1 (stereo unspecified) |  | inactive: -1.77% |
| CC(C1CC1)N(Cc1ccccc1)C(=S)Nc1ccccc1 (stereo unspecified) |  | inactive: 13.9% |
| CCOC(=O)/C(=C/C=C1\Sc2ccccc2N1CC)C(C)=O | inconclusive [activator, partial curve] |  |
| COc1ccc(C/C(N)=N/OC(=O)c2cccc([N+](=O)[O-])c2)cc1 | inconclusive [activator, single point] |  |
| CCOC(=O)c1sc2nc(CC(=O)OC)nc(N3CCN(c4ccc(OC)cc4)CC3)c2c1C |  | inactive: 19.5% |
| CC(C)N(C)c1ncnc2c1ncn2[C@H]1CN(Cc2cccs2)C[C@@H](CO)O1 | inconclusive [activator, partial curve, poor fit] |  |
| Cc1nc2ccccc2cc1OCc1ccccc1 | inconclusive [activator, partial curve, poor fit] |  |
| COc1cc(-c2nnc3sc(C4CCCCC4)nn23)cc(OC)c1OC | inconclusive [activator, partial curve, poor fit] |  |
| COc1cc(/C=C2\SC(=Nc3ccc(O)cc3)NC2=O)cc(OC)c1O | inconclusive [activator, partial curve] |  |
| Cc1ccccc1Oc1nc2ccccn2c(=O)c1/C=C(\C#N)C(=O)Nc1c(C)n(C)n(-c2ccccc2)c1=O | inconclusive [activator, single point] |  |
| CCC(NC(C)C)C(O)c1ccc(O)c(O)c1 (stereo unspecified) |  | inconclusive: 54.6% [activator] |
| O=C(c1ccc(Br)cc1)C(CN1CCOCC1)c1ccccc1 (stereo unspecified) |  | inactive: -5.81% |
| Cc1cnc(NC(=O)[C@H](C)N2C(=O)C3CCCCC3C2=O)s1 (stereo partly specified) |  | inactive: 0.46% |
| Cc1cc(C)n2nc(SCC(N)=O)nc2n1 |  | inconclusive: 37.5% [activator] |
| CCCCn1cnc2c(SCc3ccc(Cl)cc3)nc(N)nc21 | inconclusive [activator, partial curve] |  |
| CCOC(=O)CNC(=O)N(C)[C@H]1C[C@H]2c3[nH]c4ccccc4c3CCN2C(=O)[C@H]1[C@H](C)O |  | inactive: 12.8% |
| S=C1NC=NC2N=CNC12 (stereo unspecified) |  | inactive: 5.04% |
| CC(C)NC(=O)c1ccc(-c2ccc(F)c(F)c2)c2ccoc12 | inconclusive [activator, single point] |  |
| Cc1cc(Nc2nc(Cl)c(Cl)cc2Cl)n(-c2ccccc2)n1 | inconclusive [activator, partial curve, poor fit] |  |
| COc1ccc(-c2nc(CS(=O)CC(=O)NCCc3ccc(C)cc3)c(C)o2)cc1OC (stereo unspecified) | inconclusive [activator, single point] |  |
